# Results: PubChem BioAssay AID1508642 (National Center for Advancing Translational Sciences (NCATS), 2021)
# Out of some 43,000 compounds screened, about 200 (0.47%) were called active. Roughly 12% stayed inconclusive and do not appear here. Calls follow the shape of the dose curve; as a rule, active = well fitted cell-killing curve with a large enough effect; inconclusive = small, poorly fitted or top-dose-only effect, or effect the other way; inactive = flat fitted curve, though single readings scatter. This is one part of the list.
# Test: Cell viability qHTS assay in S16 Pmp22-F2sN cells; also: nearly all actives have a fitted effect of over 65% in size
# Conditions: S16 Pmp22-F2sN Schwann cells (luciferase reporters placed in the Pmp22 gene) viability, CellTiter-Glo, 24 h; series mostly up to 57.5 µM; activity change, negative = cytotoxicity: at the top concentration
# In short: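 CellTiter-Glo counter-screen, qHTS, 1536-well. Cells: S16(c9) Pmp22-F2sN, 500-1,000/well in DMEM + 10% FBS. Cpd 23 nL pin transfer, 24 h, 37C/5% CO2. Read: luminescence, CCD imager.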
# % is scaled to controls: 0 for no effect and ±100 for the full control effect.
row,SMILES,"activity change, negative = cytotoxicity"
1,Cc1ccc(C)c(S(=O)(=O)c2cn(C)c3cc(F)c(F)cc3c2=O)c1,inactive: 8.78%
2,CC(=O)Nc1ccccc1-c1nc2ccccc2n(CC(=O)Nc2ccc(C)c(Cl)c2)c1=O,inactive: -9.61%
3,COc1ccc(CCn2c(=O)c3ccccc3n(CC(=O)Nc3cccc(C)c3)c2=O)cc1OC,inactive: 8.01%
4,O=C(NCc1ccc2c(c1)OCO2)c1ccc2c(c1)N(Cc1ccccc1F)C(=O)c1ccccc1S2=O (stereo not given),inactive: -6.47%
5,CCc1nnc(NC(=O)c2nc(SC)ncc2Cl)s1,inactive: 5.9%
6,CCSc1oc(-c2cccs2)nc1S(=O)(=O)c1ccc(Br)cc1,inactive: -0.664%
7,NC(=O)CSc1nc2c(oc3ccccc32)c(=O)n1Cc1ccccc1,inactive: -2.79%
8,Cc1ccccc1C(=O)Nc1c(C(=O)Nc2cccc(F)c2)oc2ccccc12,inactive: -1.77%
9,COc1ccccc1CNC(=O)C1CCN(C(=O)c2sccc2-n2cccc2)CC1,inactive: -1.72%
10,CN(C1CCCCC1)S(=O)(=O)c1ccc2c(c1)c(=O)c(C(=O)NCc1ccc(F)cc1)cn2C,inactive: 5.36%
11,CCn1ccc2c(OCC(=O)Nc3ccc(C(C)=O)cc3)cccc2c1=O,inactive: -4.09%
12,COc1ccccc1CNC(=O)c1cc2c(-c3ccc(Cl)cc3)nn(C)c2s1,inactive: -10.8%
13,Cc1cccn2c3c(c(=O)nc12)C(c1ccc(F)cc1)CC(=O)N3 (stereo not given),inactive: -0.186%
14,CCCN(C(=O)c1c(C)oc2ncnc(N3CCOCC3)c12)c1ccc(Cl)c(Cl)c1,inactive: 1.82%
15,O=S(=O)(NCC(c1ccco1)N1CCN(c2ccccc2)CC1)c1ccccc1 (stereo not given),inactive: -3.41%
16,CCOc1ccc(Cn2nnc(C(=O)Nc3ccc(Cl)cc3)c2N)cc1,inactive: -5.48%
17,COc1cc(OC)cc(-c2cc3nc(C)c(CCC(=O)Nc4ccccc4OC)c(C)n3n2)c1,inactive: -0.678%
18,O=C(CN(c1ccc(Cl)c(C(F)(F)F)c1)S(=O)(=O)c1ccccc1)Nc1cccnc1,inactive: -7.08%
19,COCCNC(=O)Cn1c(=O)c2cccn2c2ccc(F)cc21,inactive: 4.49%
20,N#Cc1ccccc1CSc1nnc2ccc3ccccc3n12,inactive: -1.69%
21,COCc1c(Br)c(C)nc2sc3c(=O)n(-c4cccc(Br)c4)nnc3c12,inactive: -1.29%
22,CCN(CC)CCNC(=O)c1cn(CC)c2ccc(S(=O)(=O)N(C)C3CCCCC3)cc2c1=O,inactive: 8.72%
23,Cn1c(C(=O)N2CCC(C(=O)NCCc3ccccc3)CC2)cc2sccc21,inactive: -0.828%
24,CC(NC(=O)c1ccco1)c1nc(-c2ccccc2)no1 (stereo not given),inactive: 21.4%

row,SMILES,"activity change, negative = cytotoxicity"
1,Cc1cc(=O)n(CC(=O)NC(C)c2ccccc2)c2c1c(C)nn2-c1cccc(F)c1 (stereo not given),inactive: -11.1%
2,Cc1ccc(C)c(-n2nnc(-c3nc(-c4ccccc4C)no3)c2C)c1,inactive: -1.59%
3,COc1ccc(-c2nn(-c3ccc(C)cc3)c3c2cnc2ccc(C)cc23)cc1OC,inactive: 28.3%
4,COc1ccc(CCNc2nc3cc(OC)c(OC)cc3c3nc(-c4ccccc4)nn23)cc1OC,inactive: 1.93%
5,CCOc1ccc(-c2nc(CSCC(=O)NCc3ccc(C)cc3)c(C)o2)cc1,inactive: -10.9%
6,COC(=O)c1cc(NC(=O)c2sc3ccccc3c2Cl)cc(C(=O)OC)c1,inactive: 24.5%
7,COC(=O)c1cc2occc2n1CC(=O)Nc1ccc(C)cc1Cl,inactive: -8.56%
8,O=C(NCC(c1cccnc1)N1CCN(Cc2ccccc2)CC1)C(=O)Nc1cccc(Cl)c1 (stereo not given),inactive: -29%
9,O=C(O)c1cccc(-n2cnc3cccnc32)c1,inactive: 15.7%
10,CCCN1CCN(CCCNC(=O)C(CC)n2nc(C)n3c(cc4occc43)c2=O)CC1 (stereo not given),inactive: 13.4%
11,COc1ccc(CCNC(=O)CCCn2nc(C)c3sc4ccccc4c3c2=O)c(OC)c1,inactive: 14.4%
12,CCOc1ccc(NC(=O)Cn2c(=O)n(CCCS(=O)(=O)C3CCCCC3)c(=O)c3ccccc32)cc1,inactive: -3.51%
13,Cc1cccc(NC(=O)CCNS(=O)(=O)c2ccc3c(c2)CCN3C(=O)C2CC2)c1,inactive: -3.92%
14,CCOC(=O)C1CCN(C(c2ccc(C)cc2)c2c(O)cc(C)n(CCOC)c2=O)CC1 (stereo not given),inactive: 5.14%
15,Cc1ccc(NC(=O)Cn2cc(C(=O)C3CCCCC3)c3ccccc32)cc1,inactive: -1.34%
16,COc1ccc(N2CCN(C(=O)C3CCN(S(=O)(=O)c4cn(C)cn4)CC3)CC2)cc1,inactive: -19.2%
17,Cc1cccc(N(C)C(=O)Cc2c(C(=O)O)[nH]c3ccccc23)c1,inactive: -7.67%
18,Cc1ccc(-n2ncc3c(N4CCC(Cc5ccccc5)CC4)ncnc32)cc1C,inactive: 12.5%
19,Cc1ccc(OC(=O)CSc2nnc(-c3ccc4c(c3)OCO4)o2)cc1,inactive: -4.1%
20,Cc1ccc(C(=O)Nc2ccccc2)cc1S(=O)(=O)Nc1ccccc1,inactive: -5.66%
21,Cc1ccc(NC(=O)C2CCC(CNS(=O)(=O)c3cccc4nsnc34)CC2)c(Cl)c1 (stereo not given),inactive: 0.44%
22,O=C(Cc1ccccc1)Nc1sc2c(c1C(=O)Nc1ccc(Br)cc1)CCCC2,inactive: 0.154%
23,COCCCn1c(-c2ccc(S(=O)(=O)N3CCOCC3)cc2)csc1=Nc1ccccc1,inactive: -1.09%
24,CC1(c2ccc(Cl)cc2)CC(C)(C)N(C(=O)c2cccc(F)c2)c2ccccc21 (stereo not given),inactive: -13.6%

row,SMILES,"activity change, negative = cytotoxicity"
1,COc1ccc(CNC(=O)c2cc3sccc3n2Cc2ccc(C)cc2)cc1,inactive: -2.23%
2,COc1ccccc1NC(=O)Cn1c(=O)n(CC(=O)NCc2ccccc2Cl)c(=O)c2sccc21,inactive: -19.6%
3,COc1ccc(C(=O)Oc2c(Sc3ccc(C)cc3)c(C)nn2C(C)(C)C)cc1OC,inactive: 0.545%
4,O=C(c1ccc2c(c1)N(Cc1ccc(Cl)cc1)C(=O)c1ccccc1S2=O)N1CCCCC1 (stereo not given),inactive: 14.2%
5,Cc1ccc(C(=O)Oc2cc(-c3ccc4c(c3)OCO4)cc(=O)c3c(C)oc(C)c23)cc1,inactive: -18.3%
6,Cc1ccc(C(=O)NC2(C(F)(F)F)N=C(c3ccccc3)N(Cc3ccccc3)C2=O)cc1 (stereo not given),inactive: -15.3%
7,CC(=O)c1ccc(NS(=O)(=O)c2ccc(-n3cccn3)cc2)cc1,inactive: 3.51%
8,Cc1ccccc1OCCSc1nc2ccc(NC(=O)c3cccs3)cc2s1,inactive: -11%
9,Cn1c(=O)cc(SCC(=O)N2CCN(c3ccccc3F)CC2)c2ccc(Cl)cc21,inactive: 0.335%
10,COCCCNC(=O)CSc1nc2cc3c(cc2c(=O)n1CCCC(=O)NCc1ccc2c(c1)OCO2)OCO3,inactive: -1.29%
11,CCn1nc(-c2ccccc2)c(-c2ccccc2)c(C(=O)Nc2ccc(NC(C)=O)cc2)c1=O,inactive: -2.64%
12,Cc1cc(C)cc(Oc2nc3ccccn3c(=O)c2/C=C(\C#N)c2nc3ccccc3s2)c1,inactive: 13.5%
13,Cc1ccc(-c2csc(=Nc3ccccc3)n2Cc2ccc3c(c2)OCO3)cc1,inactive: -1.59%
14,Cc1ccc(Cn2ccnc2SCC(=O)Nc2nnc(C)s2)cc1,inactive: 4.53%
15,COc1ccc(OC)c(NC(=O)Nc2c(C)n(C)n(-c3ccccc3)c2=O)c1,inactive: 8.54%
16,CCc1ccccc1NC(=O)C(C)n1c(=O)cc(C)c2c(C)nn(-c3ccccc3)c21 (stereo not given),inactive: 1.26%
17,COC(=O)c1ccc(CSc2nc3c([nH]c4ccccc43)c(=O)n2-c2cccc(Cl)c2)o1,inactive: 13.2%
18,CCOC(=O)C1CCCN(C(=O)Cn2ncc3c4ccccc4n(Cc4ccccc4)c3c2=O)C1 (stereo not given),inactive: 3.4%
19,CCN(CC)S(=O)(=O)c1ccc2c(c1)nc(CN(C)C(=O)Nc1ccc(C)c(F)c1)n2C,inactive: -2.87%
20,CCc1ccccc1NC(=O)CN1C(=O)CCSc2ccc(S(=O)(=O)N3CCCC3)cc21,inactive: -0.138%
21,O=C(OCC1CCCO1)c1ccc2c(c1)N(Cc1ccccc1)C(=O)c1ccccc1S2(=O)=O (stereo not given),inactive: 4.43%
22,COc1ccc(NC(=O)c2sc3nc(C(F)(F)F)cc(C)c3c2N)cc1OC,inactive: 18.8%
23,Cc1ccc(NC(=O)c2nc(S(C)(=O)=O)ncc2N(Cc2ccco2)Cc2cccs2)cc1C,inactive: -2.05%
24,COc1ccc(N2CCN(C(=O)COCc3cc(-c4ccc5c(c4)OCO5)on3)CC2)cc1,inactive: 14%

row,SMILES,"activity change, negative = cytotoxicity"
1,O=C(Nc1ccc(C(=O)OCc2cc(=O)n3nc(C4CC4)sc3n2)cc1)c1cccc(F)c1,inactive: 16.5%
2,CCN(c1ccccc1)S(=O)(=O)c1ccc(NC(=O)c2cc(=O)c3ccccc3o2)cc1,inactive: -17.3%
3,Fc1ccc(Nc2ncnc3c2nc2n3CCCCC2)c(F)c1,inactive: 24.8%
4,COCCCNC(=O)c1ccc2c(c1)nc(C)n2-c1cccc(C)c1,inactive: 18.8%
5,Cc1c(C(=O)OC2CCCCC2)[nH]c2c1C(=O)CC(c1ccc(C(C)(C)C)cc1)C2 (stereo not given),inactive: 0.0324%
6,CCC(=O)N1CCc2cc(Br)cc(S(=O)(=O)CCC(=O)N3CCN(c4cc(C)ccc4C)CC3)c21,inactive: 6.91%
7,CCCc1nnc(NC(=O)c2cc(=O)c3cc(C)c(C)cc3o2)s1,inactive: -17.1%
8,O=C(Nc1ccc(F)cc1)C1CCN(S(=O)(=O)c2ccc3c(c2)CCCN3C(=O)C2CCC2)CC1,inactive: 7.41%
9,CCOC(=O)c1c(S(=O)(=O)N2CCC(C(=O)Nc3ncccc3C)CC2)c(C)n(C)c1C,inactive: 0.324%
10,CCOC(=O)c1cc(-c2ccc(OC)cc2)n(CCC(=O)NC2CCCCC2)c1C,inactive: -23.5%
11,Cc1ccc(Cn2c(=O)n(CCCCC(=O)NCc3ccccc3Cl)c(=O)c3ccccc32)cc1,inactive: -0.965%
12,O=c1[nH]c2ccc(NCc3ccc(-c4ccccc4)o3)cc2[nH]1,inactive: -9.21%
13,Cc1cccc(OCC(=O)Nc2ccccc2C(=O)OCc2cc(=O)n3nc(C)sc3n2)c1,inactive: 3.69%
14,CCOc1ccc(NC(=O)CCCc2nnc3n(C)c(=O)c4sccc4n23)cc1,inactive: -1.5%
15,O=C(NCc1ccccc1F)C(=O)NCC(c1ccco1)S(=O)(=O)c1cccs1 (stereo not given),inactive: 0.0049%
16,O=C(CSc1nc(-c2ccccc2)nc2c1Cc1ccccc1O2)N1CCCCC1,inactive: 14.4%
17,CC1=C(C(=O)Nc2ccccc2)C(c2cccc(Cl)c2)n2nc(SCC(=O)c3ccc(C)cc3)nc2N1 (stereo not given),inactive: 0.824%
18,Cc1ccc(CCNC(=O)c2cc3c(-c4ccccc4F)nn(C)c3s2)cc1,inactive: 1.59%
19,COc1ccc(OC)c(NC(=O)c2cn(CC(C)C)c(=O)c3cc(OC)c(OC)cc23)c1,inactive: -11.4%
20,O=C(Nc1ccc2oc(-c3ccc4ccccc4c3)nc2c1)c1ccc(Cl)c(Cl)c1,inactive: 3.43%
21,O=C(Nc1ccc(Br)cc1F)N1CCC(CN2CCc3ccccc3C2)CC1,inactive: -13.4%
22,COC(=O)c1cc(Cl)ccc1NC(=O)CSc1ncc(S(=O)(=O)c2ccc(Br)cc2)c(=O)[nH]1,inactive: -3.59%
23,COc1ccc(C(=O)COC(=O)CCCC(=O)Nc2cc(C(F)(F)F)ccc2Cl)cc1,inactive: 10.4%
